The full ranking holds about 2,900 compounds; the median of “IRF Lucia reporter activity, fold change vs agonist alone” is about 0.9, and the highest 2% start at about 2.8. The list shows a part of the results.
What was measured:
[1] = system: RAW-Dual; assay: IRF Lucia reporter activity, fold change vs agonist alone; cytotoxicity flag (confluency mask): not cytotoxic; higher = enhanced IRF activity
Procedure, shortened: (§1)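 Library stock was pin-tooled at 50 nL into 384-well plates of RAW-Dual macrophages (50,000 cells/well, DMEM), followed 1 h later by a PRR agonist, and the cells were kept at 37 °C, 5% CO2. Supernatant collected after 20 hours was read for IRF by QuantiLuc luminescence and for NF-κB by QuantiBlue absorbance at 620 nm. Reporter activity is fold change over agonist-alone wells, and a well counted as cytotoxic when its IncuCyte confluency was below 70% of agonist controls in both mask sets.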

[2] = system: RAW-Dual; assay: IRF Lucia reporter activity, fold change vs agonist alone; higher = enhanced IRF activity; details: library stock concentration (final ~1000-fold dilution): 10 mM, agonist: MPLA (TLR4) […]
Procedure, shortened: as §1

[3] = system: RAW-Dual; assay: IRF Lucia reporter activity, fold change vs agonist alone; cytotoxicity flag (confluency mask): cytotoxic (confluency <70% of control); higher = enhanced IRF activity
Procedure, shortened: as §1

[4] = agonist: 3'3'-cGAMP (STING) 10 ug/mL
[5] = cytotoxicity flag (confluency mask): not cytotoxic
[6] = cytotoxicity flag (confluency mask): cytotoxic (confluency <70% of control)

**Q.** What does the source list for `O=S(=O)(N=Cc1c(O)ccc2ccccc12)c1cccs1` (library stock concentration (final ~1000-fold dilution): 10 mM)?
**A.** IRF Lucia reporter activity [1, 4]: 0.709; IRF Lucia reporter activity ([1]; agonist: LPS (TLR4) 0.1 ug/mL): 0.968

**Q.** How did the “IRF Lucia reporter activity” value [1, 4] turn out when `Fc1ccc(CNc2ncnc3ccc(F)cc23)cc1` (library stock concentration (final ~1000-fold dilution): 10 mM) was run?
**A.** 0.209

**Q.** And the “IRF Lucia reporter activity” value ([1]; agonist: LPS (TLR4) 0.1 ug/mL)?
**A.** 0.415

**Q.** For `O=C(NNS(=O)(=O)c1ccccc1F)c1cc(F)cc(-c2ccccn2)c1` (library stock concentration (final ~1000-fold dilution): 10 mM), which “IRF Lucia reporter activity” value [1, 4] is on record?
**A.** 1.17

**Q.** And the “IRF Lucia reporter activity” value ([1]; agonist: LPS (TLR4) 0.1 ug/mL)?
**A.** 1.46

**Q.** How did the “IRF Lucia reporter activity” value [2, 5] turn out when `CCc1ccc(CCOc2ccc(CC3SC(=O)NC3=O)cc2)nc1.Cl` (stereo not given) was run?
**A.** 0.802

**Q.** `CCc1ccc(CCOc2ccc(CC3SC(=O)NC3=O)cc2)nc1.Cl` (stereo not given) (library stock concentration (final ~1000-fold dilution): 10 mM) was tested. Which “IRF Lucia reporter activity” value [1, 4] did it give?
**A.** 0.403

**Q.** And the “IRF Lucia reporter activity” value ([1]; agonist: LPS (TLR4) 0.1 ug/mL)?
**A.** 0.888

**Q.** With `O=C1CCc2c(ccc3ccccc23)O1` (library stock concentration (final ~1000-fold dilution): 10 mM) as the compound, how does the “IRF Lucia reporter activity” value [1, 4] read?
**A.** 0.821

**Q.** What about the “IRF Lucia reporter activity” value ([1]; agonist: LPS (TLR4) 0.1 ug/mL) of the same compound?
**A.** 0.991

**Q.** How did the “IRF Lucia reporter activity” value [1, 4] turn out when `C[C@@H]1O[C@@H](O[C@@H]2C(=O)c3c(O)cc(O)cc3O[C@H]2c2ccc(O)c(O)c2)[C@H](O)[C@H](O)[C@H]1O` (library stock concentration (final ~1000-fold dilution): 10 mM) was run?
**A.** 0.958

**Q.** And the “IRF Lucia reporter activity” value ([1]; agonist: LPS (TLR4) 0.1 ug/mL)?
**A.** 1.18

**Q.** What does the source list for `CN(CC(=O)N(Cc1ccc(C2CCCCC2)cc1)c1ccc(C(=O)NO)cc1)S(=O)(=O)c1c(F)c(F)c(F)c(F)c1F` (library stock concentration (final ~1000-fold dilution): 10 mM)?
**A.** IRF Lucia reporter activity [1, 4]: 0.0198; IRF Lucia reporter activity ([1]; agonist: LPS (TLR4) 0.1 ug/mL): 1.04

**Q.** Which “IRF Lucia reporter activity” value [1, 4] does the source give for `CCOc1cc(=O)[nH]cc1-c1ccc(CC(=O)Nc2cc(C(C)(C)C(F)(F)F)on2)c(F)c1` (library stock concentration (final ~1000-fold dilution): 10 mM) here?
**A.** 0.884

**Q.** What about the “IRF Lucia reporter activity” value ([1]; agonist: LPS (TLR4) 0.1 ug/mL) of the same compound?
**A.** 0.726

**Q.** With `Cc1c(OCC(F)(F)F)ccnc1C[S+]([O-])c1nc2ccccc2[nH]1` (stereo not given) (library stock concentration (final ~1000-fold dilution): 10 mM) as the compound, how does the “IRF Lucia reporter activity” value [1, 4] read?
**A.** 0.654

**Q.** And the “IRF Lucia reporter activity” value ([1]; agonist: LPS (TLR4) 0.1 ug/mL)?
**A.** 1.23

**Q.** How did the “IRF Lucia reporter activity” value [2, 5] turn out when `Cc1c(OCC(F)(F)F)ccnc1C[S+]([O-])c1nc2ccccc2[nH]1` (stereo not given) was run?
**A.** 0.944

**Q.** Which “IRF Lucia reporter activity” value [1, 4] does the source give for `CC(O)COCC1OC2OC3C(COCC(C)O)OC(OC4C(COCC(C)O)OC(OC5C(COCC(C)O)OC(OC6C(COCC(C)O)OC(OC7C(COCC(C)O)OC(OC8C(COCC(C)O)OC(OC1C(O)C2O)C(O)C8O)C(O)C7O)C(O)C6O)C(O)C5O)C(O)C4O)C(O)C3O` (stereo not given) (library stock concentration (final ~1000-fold dilution): 10 mM) here?
**A.** 0.962

**Q.** What about the “IRF Lucia reporter activity” value ([1]; agonist: LPS (TLR4) 0.1 ug/mL) of the same compound?
**A.** 1.23

**Q.** How did the “IRF Lucia reporter activity” value [2, 5] turn out when `CC(O)COCC1OC2OC3C(COCC(C)O)OC(OC4C(COCC(C)O)OC(OC5C(COCC(C)O)OC(OC6C(COCC(C)O)OC(OC7C(COCC(C)O)OC(OC8C(COCC(C)O)OC(OC1C(O)C2O)C(O)C8O)C(O)C7O)C(O)C6O)C(O)C5O)C(O)C4O)C(O)C3O` (stereo not given) was run?
**A.** 0.967

**Q.** How did the “IRF Lucia reporter activity” value [2, 6] turn out when `COc1cc2c(Oc3ccc4[nH]c(C)cc4c3F)ncnc2cc1OCCCN1CCCC1.O=C(O)/C=C\C(=O)O` was run?
**A.** 2.35

**Q.** With `COc1cc2c(Oc3ccc4[nH]c(C)cc4c3F)ncnc2cc1OCCCN1CCCC1.O=C(O)/C=C\C(=O)O` (library stock concentration (final ~1000-fold dilution): 10 mM) as the compound, how does the “IRF Lucia reporter activity” value [3, 4] read?
**A.** 0.783

**Q.** What about the “IRF Lucia reporter activity” value ([3]; agonist: LPS (TLR4) 0.1 ug/mL) of the same compound?
**A.** 1.92

**Q.** With `c1ccc(Cn2c(-c3ccc(OCC(C4CCNCC4)n4c(-c5ccccc5)nc5ccccc54)cc3)nc3ccccc32)cc1` (stereo not given) (library stock concentration (final ~1000-fold dilution): 10 mM) as the compound, how does the “IRF Lucia reporter activity” value [1, 4] read?
**A.** 0.0193

**Q.** And the “IRF Lucia reporter activity” value ([1]; agonist: LPS (TLR4) 0.1 ug/mL)?
**A.** 0.0422

**Q.** For `c1ccc(Cn2c(-c3ccc(OCC(C4CCNCC4)n4c(-c5ccccc5)nc5ccccc54)cc3)nc3ccccc32)cc1` (stereo not given), which “IRF Lucia reporter activity” value [2, 5] is on record?
**A.** 0.0524

**Q.** `CCOC(=O)c1ccc(N2NC(=O)/C(=C/c3ccc([N+](=O)[O-])o3)C2=O)cc1` (library stock concentration (final ~1000-fold dilution): 10 mM) was tested. Which “IRF Lucia reporter activity” value [1, 4] did it give?
**A.** 0.527

**Q.** What about the “IRF Lucia reporter activity” value ([1]; agonist: LPS (TLR4) 0.1 ug/mL) of the same compound?
**A.** 0.445

**Q.** With `CCOC(=O)c1ccc(N2NC(=O)/C(=C/c3ccc([N+](=O)[O-])o3)C2=O)cc1` as the compound, how does the “IRF Lucia reporter activity” value [2, 5] read?
**A.** 0.414

**Q.** What does the source list for `O=C(O)c1ccc(N2C(=O)/C(=C/c3ccc(-c4ccc([N+](=O)[O-])cc4)o3)C=C2c2ccccc2)cc1` (library stock concentration (final ~1000-fold dilution): 10 mM)?
**A.** IRF Lucia reporter activity [1, 4]: 0.168; IRF Lucia reporter activity ([1]; agonist: LPS (TLR4) 0.1 ug/mL): 0.439

**Q.** `O=C(O)c1ccc(N2C(=O)/C(=C/c3ccc(-c4ccc([N+](=O)[O-])cc4)o3)C=C2c2ccccc2)cc1` was tested. Which “IRF Lucia reporter activity” value [2, 5] did it give?
**A.** 0.571

**Q.** Which “IRF Lucia reporter activity” value [3, 4] does the source give for `Cc1ccc(C(=O)N(CCCN)C(c2nc3cc(Cl)ccc3c(=O)n2Cc2ccccc2)C(C)C)cc1` (stereo not given) (library stock concentration (final ~1000-fold dilution): 10 mM) here?
**A.** 0.119

**Q.** What about the “IRF Lucia reporter activity” value ([3]; agonist: LPS (TLR4) 0.1 ug/mL) of the same compound?
**A.** 0.145

**Q.** Which “IRF Lucia reporter activity” value [2, 6] does the source give for `Cc1ccc(C(=O)N(CCCN)C(c2nc3cc(Cl)ccc3c(=O)n2Cc2ccccc2)C(C)C)cc1` (stereo not given) here?
**A.** 0.128

**Q.** Which “IRF Lucia reporter activity” value [1, 4] does the source give for `COc1cc(C(=O)N(CCCc2ccccc2)Cc2ccc(CC(=O)O)cc2)cc(OC)c1C` (library stock concentration (final ~1000-fold dilution): 10 mM) here?
**A.** 1.45

**Q.** What about the “IRF Lucia reporter activity” value ([1]; agonist: LPS (TLR4) 0.1 ug/mL) of the same compound?
**A.** 1.21

**Q.** Which “IRF Lucia reporter activity” value [1, 4] does the source give for `O=C(O)c1cc(O)c2ccccc2n1` (library stock concentration (final ~1000-fold dilution): 10 mM) here?
**A.** 0.998

**Q.** What about the “IRF Lucia reporter activity” value ([1]; agonist: LPS (TLR4) 0.1 ug/mL) of the same compound?
**A.** 1.3

**Q.** For `O=C(O)c1cc(O)c2ccccc2n1`, which “IRF Lucia reporter activity” value [2, 5] is on record?
**A.** 1.07

**Q.** What does the source list for `Nc1ccc(F)cc1NC(=O)c1ccc(CNC(=O)/C=C/c2cccnc2)cc1` (library stock concentration (final ~1000-fold dilution): 10 mM)?
**A.** IRF Lucia reporter activity [1, 4]: 0.467; IRF Lucia reporter activity ([1]; agonist: LPS (TLR4) 0.1 ug/mL): 0.477

**Q.** Which “IRF Lucia reporter activity” value [2, 5] does the source give for `COc1ccc(COc2cc3oc(=O)c4cc(C(C)O)ccc4c3cc2OC)cc1` (stereo not given) here?
**A.** 1.36

**Q.** What does the source list for `COc1ccc(COc2cc3oc(=O)c4cc(C(C)O)ccc4c3cc2OC)cc1` (stereo not given) (library stock concentration (final ~1000-fold dilution): 10 mM)?
**A.** IRF Lucia reporter activity [1, 4]: 0.813; IRF Lucia reporter activity ([1]; agonist: LPS (TLR4) 0.1 ug/mL): 1.24

**Q.** Which results are given for `CC/C=C\C/C=C\C/C=C\C/C=C\C/C=C\C/C=C\CCC(=O)NCCNC(=O)c1ccccc1O` (library stock concentration (final ~1000-fold dilution): 10 mM)?
**A.** IRF Lucia reporter activity [3, 4]: 0.0149; IRF Lucia reporter activity ([3]; agonist: LPS (TLR4) 0.1 ug/mL): 0.0265

— the supplement of paper PMC10037445
